Results from the BET-seq Pho4 binding data (Le et al. 2018).
The other results are listed elsewhere or left out. The energies were worked out here from pooled read counts, against the library average; single values are noisy.

These sequences were tested against T1, Pho4 (S. cerevisiae) (UniProt P07270) (assay: relative binding free energy (BET-seq); higher = weaker binding). Conditions: reference: library average.
T1 sequence: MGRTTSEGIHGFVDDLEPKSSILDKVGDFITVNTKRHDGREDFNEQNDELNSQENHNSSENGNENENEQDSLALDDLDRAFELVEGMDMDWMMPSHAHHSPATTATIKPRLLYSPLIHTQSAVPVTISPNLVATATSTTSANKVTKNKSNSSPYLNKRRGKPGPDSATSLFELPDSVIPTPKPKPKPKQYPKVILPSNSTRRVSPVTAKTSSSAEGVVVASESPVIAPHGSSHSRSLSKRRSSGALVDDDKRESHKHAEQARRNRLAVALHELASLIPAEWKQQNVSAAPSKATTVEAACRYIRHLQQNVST

Sequence | relative binding free energy
GCGTACACGTGGCGTG | 0.19 kcal/mol
GGTCGCACGTGGTAAG | 0 kcal/mol
AGGAGCACGTGCGGGT | -0.15 kcal/mol
AGTATCACGTGTACTT | 0.15 kcal/mol
CTGGGCACGTGAACTG | 0.29 kcal/mol
ACTGTCACGTGGTGGC | 0.07 kcal/mol
GATGGCACGTGGTTAC | 0.03 kcal/mol
TGGGACACGTGAGGGT | 0.23 kcal/mol
GTTGGCACGTGGCCGG | -0.2 kcal/mol
TGTGCCACGTGTGTAT | -0.09 kcal/mol
TGTACCACGTGGAGTT | -0.08 kcal/mol
CATGGCACGTGCAGGG | -0.2 kcal/mol
TCATCCACGTGTGGGG | 0.1 kcal/mol
TGTAACACGTGGGTAG | -0.11 kcal/mol
TGAGACACGTGGTTTT | 0.09 kcal/mol
GGGTCCACGTGGTGGT | -0.02 kcal/mol
ATATTCACGTGACTTG | 0.42 kcal/mol
CGGGTCACGTGCTGAG | 0.17 kcal/mol
CTTATCACGTGTGGGA | 0.21 kcal/mol
TGGGTCACGTGATCGG | 0.22 kcal/mol
GATAACACGTGGGTAG | -0.15 kcal/mol
GGGGACACGTGCTTGT | -0.09 kcal/mol
TCTTACACGTGAGGAT | 0.37 kcal/mol
GGGTACACGTGCGTAT | -0.05 kcal/mol
GGGTCCACGTGATGTT | 0.16 kcal/mol

Sequence | relative binding free energy
ATCTGCACGTGTTTGT | -0.1 kcal/mol
GTTAGCACGTGGTAAG | 0.07 kcal/mol
CGAGGCACGTGGCGTT | -0.03 kcal/mol
GTAGGCACGTGCGGTG | -0.27 kcal/mol
GGATACACGTGTAAGT | 0.09 kcal/mol
GTCTTCACGTGACGGG | 0.38 kcal/mol
TTGGACACGTGTTATC | 0.14 kcal/mol
TAGTGCACGTGGGTCC | -0.18 kcal/mol
GGTGACACGTGGATTA | 0.19 kcal/mol
TTCATCACGTGTCGGT | 0.1 kcal/mol
AATATCACGTGCAGTT | 0.17 kcal/mol
GGGTGCACGTGTAGAG | 0.01 kcal/mol
TGCTTCACGTGGCGTG | 0.31 kcal/mol
AGTTTCACGTGTCAAT | 0.2 kcal/mol
CGATTCACGTGTAGTT | 0.22 kcal/mol
TATATCACGTGTAAGT | 0.23 kcal/mol
TAAAACACGTGTTTGA | -0.08 kcal/mol
GGGACCACGTGGTGTT | -0.13 kcal/mol
TGAGTCACGTGGCAGG | -0.01 kcal/mol
AGGAGCACGTGGTAGA | -0.26 kcal/mol
TTATGCACGTGTTGGC | 0.13 kcal/mol
AGCATCACGTGGGGGA | 0.02 kcal/mol
TCTTGCACGTGATTTA | 0.01 kcal/mol
CGATGCACGTGCGTGT | 0.05 kcal/mol
GGGTTCACGTGGGGGC | 0.14 kcal/mol

Sequence | relative binding free energy
CTAAGCACGTGCGGGT | -0.14 kcal/mol
TTCCTCACGTGGGTTG | 0.05 kcal/mol
GGAGGCACGTGTTGTT | -0.07 kcal/mol
AGTATCACGTGGGGTG | -0.02 kcal/mol
TCTAGCACGTGTGGGT | 0.03 kcal/mol
GATATCACGTGGGGTG | 0 kcal/mol
TATAGCACGTGGAGCG | -0.09 kcal/mol
GGTCTCACGTGGTTTG | 0.15 kcal/mol
ATAGGCACGTGAGCTT | 0.03 kcal/mol
TGTGTCACGTGCGTGA | -0.05 kcal/mol
GATGACACGTGCTGGG | 0.03 kcal/mol
CGGCGCACGTGCTGGG | -0.07 kcal/mol
CCGGGCACGTGGGGAT | -0.16 kcal/mol
AGTATCACGTGGAATG | 0.27 kcal/mol
CTCGTCACGTGTTAGG | 0 kcal/mol
TTAGCCACGTGGATTT | 0.03 kcal/mol
AGCATCACGTGTTGGA | 0.11 kcal/mol
AGTAGCACGTGGGCAG | -0.21 kcal/mol
GTCGTCACGTGAGGTG | 0.28 kcal/mol
GGCAGCACGTGTGGGT | 0.04 kcal/mol
AATGACACGTGGGCGT | -0.15 kcal/mol
GTCACCACGTGGTGTG | -0.12 kcal/mol
TCTTGCACGTGAGTGA | 0.06 kcal/mol
